Hit rate of the full screen: of about 150,000 compounds, about 540 (0.36%) showed an effect of 50% or more. Some of the results follow.

This assay has as its system Plasmodium falciparum. The experiment in a line: Primary screen in NF54 nanoGlo assay, in single point, at 2uM, 72h; a lower Z score goes with more inhibition. The class given is functional, Erythrocyte. Conditions: timepoint 72 hour.
Regarding `Cc1nccn1CCCn1c(=O)n(CC2CC2)c2ccc(C(=O)O)cc21`, the % Inhibition – broadly, the relative decrease from the control value, in per cent – is reported as -3% and the Z score amounted to 0.44.

For `CCn1nc(C)c(CNC(=O)[C@@H](CC2CCC2)NC(C)=O)n1`, the “% Inhibition” value is 7% and the Z score is -1.31.

For `O=C(NO[C@@H]1CCCCO1)NC1CC(c2ccccc2)C1` (stereo partly specified), the “% Inhibition” value was -1% and the Z score is on record as 0.08.

With `CCOc1ncccc1CNC(=O)[C@H]1CCOC(C)(C)C1`, the “% Inhibition” value is -11% and the Z score stood at 1.46.

Take `C=CCn1ccc2ccn(Cc3c(C)noc3C)c(=O)c21`: the “% Inhibition” value is listed as -24% and the Z score is 2.11.

Regarding `C=C=CCNS(=O)(=O)[C@@H]1CCc2ccccc2[C@H]1OC`, the “% Inhibition” value is on record as -13% and the Z score came to 2.44.

Consider `CCNc1cc(C)nc(NCCNC(=O)COc2ccc(-n3cccn3)nn2)n1`, for which the “% Inhibition” value is -8% and the Z score is recorded as 1.44.

As to `O=C(N1CCC(Cc2ccccc2)CC1)N1CCO[C@@]2(CCCOC2)C1`, the “% Inhibition” value is recorded as -4% and the Z score amounted to 0.8.

`COC1CCN(C2CN(S(=O)(=O)c3ccc(F)c(F)c3)C2)CC1`: the “% Inhibition” value is -10% and the Z score was found to be 1.85.

As to `CCOC(=O)[C@H](Cc1ccccc1)NC(=O)c1cccc[n+]1[O-]`, the “% Inhibition” value is listed as -11% and the Z score is reported as 1.37.

`NS(=O)(=O)c1cnn(C2CCC2)c1`: the “% Inhibition” value is -13% and the Z score was found to be 2.03.

`CC(Oc1ccccc1)C(=O)N1C2CCC1CC(n1ccnc1)C2` (stereo unspecified): the “% Inhibition” value was -20% and the Z score was 2.54.

Regarding `C[C@@H](Cn1cncn1)C(=O)NCCc1ccncc1`, the “% Inhibition” value was -16% and the Z score worked out at 3.18.

Regarding `Cc1nnc(NC(=O)C(C)(C)S(=O)(=O)C2CC2)n1C1CC1`, the “% Inhibition” value amounted to 33% and the Z score was -4.8.

For `COc1cc(OC)cc(-c2nc(-c3cn(-c4ccc(C)cc4)nn3)no2)c1`, the “% Inhibition” value is on record as -14% and the Z score is 2.73.

On to `N#Cc1ccc(NCCNc2cnccn2)nc1`, for which the “% Inhibition” value is -4% and the Z score worked out at 0.67.

Take `CC(C)(Oc1ccc(C#N)cc1)C(=O)N1CCCc2ccccc2C1`: the “% Inhibition” value is recorded as -15% and the Z score stood at 1.29.

As for `C[C@@H](C(=O)N(C)CCc1ccccn1)n1ccnc1`, the “% Inhibition” value was -3% and the Z score is listed as 0.41.

In the case of `O=C(Nc1ccc(OCc2cccnc2)cc1)NC1CCCC1`, the “% Inhibition” value is 4% and the Z score is reported as -0.49.

Turning to `Fc1ccc2onc(C3CCN(Cc4cc5n(n4)CCNC5)CC3)c2c1`, the “% Inhibition” value worked out at 1% and the Z score was -0.11.

Turning to `CCc1noc(-c2nc(-c3ccc(C)cc3)no2)n1`, the “% Inhibition” value is -16% and the Z score was determined as 1.8.

For the compound `N#Cc1ccsc1N1CCC(NC2CCOC2C2CC2)C1=O` (stereo unspecified), the “% Inhibition” value is -3% and the Z score came out at 0.36.

`CCNS(=O)(=O)c1cc(-c2c(C)noc2NC(C)=O)ccc1OC`: the “% Inhibition” value is -4% and the Z score turned out to be 0.59.

With `Cc1ccc(C(=O)N(C)Cc2nc3ccccc3c(=O)[nH]2)n1C`, the “% Inhibition” value was -1% and the Z score stood at 0.13.

As to `COc1ccccc1CC(C)CC(=O)N1CCC(C(=O)O)C1` (stereo unspecified), the “% Inhibition” value is recorded as -9% and the Z score stood at 0.88.

Regarding `CN(CC1(O)CCC1)c1ncnc2sc(C(F)(F)F)nc12`, the “% Inhibition” value is listed as 13% and the Z score is listed as -1.75.

For `Oc1nnc(Cc2ccccc2Cl)c2ccccc12`, the “% Inhibition” value was -7% and the Z score was found to be 1.

Consider `CCc1nc2n(n1)CCCC2NC(=O)C(CC)OC1CCCCC1` (stereo unspecified), for which the “% Inhibition” value is recorded as 9% and the Z score was -0.91.

Take `CC(C)c1nnc2n1[C@](C)(C(=O)NCCN1CCCCC1)COC2`: the “% Inhibition” value is recorded as -11% and the Z score is given as 1.28.

Turning to `C[C@H]1COC(C)(C)CN1C[C@@H]1CCC(=O)N1`, the “% Inhibition” value was -9% and the Z score worked out at 0.95.

On to `CCn1ccnc1CN1CCN(Cc2ccncc2)[C@H]2CS(=O)(=O)C[C@H]21`, for which the “% Inhibition” value was -3% and the Z score is recorded as 0.46.

Turning to `CC(C)(C)NC(=O)CNC(=O)c1ccc(-c2ccc3ocnc3c2)cc1`, the “% Inhibition” value is -13% and the Z score is given as 1.88.

`CCC(N)(CC)c1cn(C2CCN(C(=O)N[C@@H](C)c3ccccc3)CC2)nn1`: the “% Inhibition” value was determined as 13% and the Z score is on record as -1.67.

Turning to `Cc1ccc(C(C)(C)NC(=O)c2ccnc(N3CC[C@H](C)C3)c2)cn1`, the “% Inhibition” value is given as -21% and the Z score was 2.7.

For `Cc1cc(N2CCCCCC2)n2nc(-c3ccccc3)c(C)c2n1`, the “% Inhibition” value is on record as -13% and the Z score came out at 2.51.

Regarding `CCC(=O)N1CCCCCCNC(=O)[C@@H]2C[C@@H](C(=O)NCCc3c[nH]c4ccccc34)C[C@@H]21`, the “% Inhibition” value is -11% and the Z score is on record as 2.29.

Regarding `COc1ccc(Cl)cc1-c1cn(CC(=O)N2CCN(C(C)=O)CC2)nn1`, the “% Inhibition” value is given as -14% and the Z score was 1.77.

For `CN(C)c1ccc(NC(=O)NC2C3CCOC3C23CCC3)nc1` (stereo unspecified), the “% Inhibition” value is listed as -16% and the Z score was 1.57.

Turning to `CN(Cc1ccccc1)C1(CNCC2CC2)Cc2ccccc2C1`, the “% Inhibition” value is reported as -4% and the Z score turned out to be 0.64.

In the case of `Cc1cccc(-n2cc(O)c(C(=O)N(CCO)C3CC3)n2)c1C`, the “% Inhibition” value is recorded as -12% and the Z score was 1.7.

`O=C1CCC[C@@H](C(=O)Nc2cccc(-c3noc(C(F)F)n3)c2)N1`: the “% Inhibition” value is -7% and the Z score came out at 0.87.

For `O=C(NCCc1ccccc1)C(=O)NCc1ccc(-c2ccoc2)cc1`, the “% Inhibition” value was -16% and the Z score was determined as 1.82.

As for `COc1ccc(-c2cc(C(=O)N[C@@H](Cc3cc4ccccc4[nH]3)C(=O)O)c(C)o2)cc1OC`, the “% Inhibition” value was -12% and the Z score is reported as 1.43.

The values above are taken from ChEMBL document CHEMBL4888484, “Replenishing the malaria drug discovery pipeline: Screening and hit evaluation of the MMV Hit Generation Library 1 (HGL1) against asexual blood stage Plasmodium falciparum ,using a nano luciferase reporter read-out” (2022).
